Reference: patent US20190330347A1 (TAIZHOU HANZHONG BIOPHARMACEUTICS, published 2019)

Legend:
PD-1-his antigen = biological target: T1, PD-1-his antigen (UniProt Q15116 in part, limits assumed); assay: ELISA on coated PD-1-his
T1 construct: Human is implied, since cynomolgus and rat PD1 are called non-human antigens
Protocol: An ELISA plate was coated with PD-1-his antigen in a concentration of 0.25 μg/ml (100 μl per well) by incubation at 4° C. overnight.
The ELISA plate coated with the PD-1-his antigen was blocked with 1% BSA in the PBS buffer at 37° C. for 2 hours and washed with 1 xPBST buffer containing 1% Tween-20 for three times, with gently patting to dryness.
The absorbance of solution in each well was measured with the microplate reader at a wavelength of 450 nm.

PD-1-hIgGFc antigen [1] = biological target: T2, PD-1-hIgGFc antigen (UniProt Q15116 in part, limits assumed); assay: competitive ELISA on coated PD-1-hIgGFc, competitor PDL2-his tag
Protocol: A 96-well ELISA plate was coated with PD-1-hIgGFc antigen in a concentration of 1.0 μg/ml (100 μl per well) by incubation at 4° C. overnight.
After the 96-well ELISA plate was washed with the PBST buffer for five times and gently patted to dryness, HRP-conjugated monoclonal mouse anti-his tag as a secondary antibody in 1:750 dilution (50 μl per well) was added for incubation at 37° C. for 1 hour.

PD-1-hIgGFc antigen [2] = biological target: T2, PD-1-hIgGFc antigen; assay: competitive ELISA on coated PD-1-hIgGFc, competitor PDL1-mIgG2aFc
Protocol: A 96-well ELISA plate was coated with PD-1-hIgGFc antigen in a concentration of 0.5 μg/ml (50 μl per well) by incubation at 4° C. overnight.

T2 sequence (Q15116 25-167 limits assumed): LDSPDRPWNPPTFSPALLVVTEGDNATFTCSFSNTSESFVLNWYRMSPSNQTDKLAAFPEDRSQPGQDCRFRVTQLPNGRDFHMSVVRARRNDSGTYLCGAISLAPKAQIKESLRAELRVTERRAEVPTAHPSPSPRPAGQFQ
PD-1-his antigen, sequence (Q15116 25-167 limits assumed): as above

B1: humanized H2L2 antibody (wild-type IgG-like antibody H2L2 against PD-1) (antibody)
heavy: EVQLVQSGGGLVQPGGSLKLSCAASGFTFSSYGMSWVRQAPGKGLDWVATISGGGRDTYYPDSVKGRFTISRDNSKNNLYLQMNSLRAEDTALYYCARQKGEAWFAYWGQGTLVTVSSASTKGPSVFPLAPCSRSTSESTAALGCLVKDYFPEPVTVSWNSGALTSGVHTFPAVLQSSGLYSLSSVVTVPSSSLGTKTYTCNVDHKPSNTKVDKRV[human IgG4 Fc with S228P (EU numbers) left out here]
light: DIVLTQSPASLAVSPGQRATITCRASESVDNYGISFMNWFQQKPGQPPKLLIYAASNKGTGVPARFSGSGSGTDFTLNINPMEENDTAMYFCQQSKEVPWTFGGGTKLEIKRTVAAPSVFIFPPSDEQLKSGTASVVCLLNNFYPREAKVQWKVDNALQSGNSQESVTEQDSKDSTYSLSSTLTLSKADYEKHKVYACEVTHQGLSSPVTKSFNRGEC
notes: It says H2L2 differs from H8L2 only at heavy chain positions 254, 308 and 434; Those numbers are EU numbers; also called 18A10 H2L2; wild-type H2L2
PD-1-his antigen
  EC50: 0.05 nM
PD-1-hIgGFc antigen [1]
  EC50: 1.58 nM
PD-1-hIgGFc antigen [2]
  EC50: 0.783 nM
